Results reported in the supplement of paper PMC10126150.
Values marked as one replicate rest on one cluster of the flow cell; about a third of the high ones do not repeat.

System: ATP
Assay: switch fluorescence ratio, 500 uM ATP over buffer (Cy3 cluster intensity, sum of 5 cycles each) (fold (ratio)); higher = stronger signal-on switching upon ATP binding; sequences stand for … in TCGTCGGCAGCGTCAGATGTGTATAAGAGACAGTTTTTTTTTTTTTTTTTTTTTTTTT…TC
Conditions: aptamer strand: ATP DNA aptamer (quencher-CACCTGGGGGAGTATTGCGGAGGAAGG + anchor), 100 nM annealed; ATP concentration: 500 uM; one replicate
Summary of the method: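 Clusters carrying Cy3-labelled switching strands on a modified Illumina MiSeq flow-cell were annealed to 100 nM quencher-labelled ATP aptamer and imaged in selection buffer. They were imaged again after 15 min with 500 uM ATP at 22 °C, over five buffer/ATP cycles with NaOH stripping and re-annealing in between. For each cluster, the fluorescence ratio is the summed Cy3 intensity of the target cycles divided by that of the buffer cycles, averaged per switch-domain sequence. Clusters outside 100-1000 RFU were left out.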
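Note: ATP exposure 15 min at 22 °C before imaging.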

Row | Sequence | switch fluorescence ratio
1 | ATACCCGGCG | 1.06
2 | GTCGGATTTT | 1.01
3 | AGACAGTGAG | 0.983
4 | CGGAGTGTTC | 1.17
5 | TCGAAGGATT | 1.05
6 | ATTTCGGCTC | 0.978
7 | CGGAATTTCT | 1.04
8 | CGTTTTCGAG | 0.989
9 | ACCAACCGCT | 1.28
10 | GATTCGCAAA | 1.11
11 | GCCCATAGAG | 0.991
12 | AAGTGTAGA | 1
13 | CCCGCAGGGG | 1.51
14 | TGGAGCAGGT | 1.1
15 | ACTCCCGTAT | 1.28
16 | GAACATTAAG | 1.03
17 | CAGAAGCGCA | 1.04
18 | TGGCTCTAAT | 1.01
19 | GACCGGGGAG | 1
20 | GCCCAGCCAA | 1.02
21 | GATGCAGTTA | 1.02
22 | AAAGCTTAAT | 0.974
23 | ACATATTATT | 1.03
24 | ACTGGCGCCG | 1.03
25 | TGGAGGGCCG | 1.13

Row | Sequence | switch fluorescence ratio
26 | TCTGAGGTAG | 1
27 | CCGGAATCAA | 1.76
28 | ACATGTTGTC | 0.984
29 | TTCAACGTAT | 1.08
30 | TCAAGATCCA | 1.17
31 | TCGTATTATG | 1.03
32 | GAAATCAGTG | 1.01
33 | CTGAAAAGGG | 0.976
34 | TGCTTTGGCC | 1.08
35 | ATACCCCAAT | 1.08
36 | GAGTTATGGC | 0.975
37 | CGCGGTCCTC | 1.22
38 | TTTGTGGTCA | 1
39 | GCCTCGATGA | 1.01
40 | CTCTTATATC | 1.05
41 | ATAACAGACC | 1.06
42 | CCGTGCTGGG | 1.09
43 | GTATGTGTT | 1.06
44 | ATGACGCATA | 3.94
45 | GCGGAATGTC | 1.03
46 | AATTTGCGAG | 0.991
47 | CAAGTATTAG | 1.01
48 | AGACTGGGAA | 1.01
49 | GGCCCGCGGT | 1.02
50 | GTTTTCTGCG | 0.944

Row | Sequence | switch fluorescence ratio
51 | GCTAATCGT | 0.976
52 | ACAAAACATT | 1.13
53 | GTGGCCTGGG | 1.03
54 | TTTAACGACC | 1.1
55 | GTCAACCGTG | 0.992
56 | GCACCGATGC | 1.16
57 | TAGGTTGACT | 0.997
58 | GACATTCAAC | 1.02
59 | AAACTCGTGG | 0.976
60 | AGAGTGATAT | 1.05
61 | GAGGCGGGCA | 1
62 | TAGGGAGACA | 1.03
63 | AAGATGGACT | 1.03
64 | CAGATTTGTA | 1.02
65 | CGTCCGAATA | 3.95
66 | CTATATTCGA | 1.03
67 | GGTAGGTGAG | 0.987
68 | CGACGTAACT | 1.43
69 | TGCAGGCAGT | 0.994
70 | CTGAAGCGGA | 1.12
71 | GCTTTTGTAG | 1.02
72 | AAATAGTAT | 0.959
73 | ACGTTTTAAA | 1.02
74 | ATCTGTTGTA | 1.01
75 | GTCTGGAAAT | 0.99

Row | Sequence | switch fluorescence ratio
76 | ACATCGCGGG | 1.01
77 | CATATCGAGA | 1.01
78 | CTCCGTTGTT | 2.2
79 | GGGAGAAGCA | 0.98
80 | TACGATTGTT | 1
81 | ATAGCGACGC | 0.935
82 | CACATGCGGG | 0.99
83 | GTGGCCAGGT | 1.1
84 | AATTCAGTTA | 1
85 | TGGGGCGGGC | 0.992
86 | AGTCCGATCG | 1.06
87 | CCTAGTTAGA | 1.02
88 | CAGCTATTA | 1.05
89 | GAAAGGGACC | 0.942
90 | CCGTGGAGTG | 0.986
91 | ACGATATCGG | 0.959
92 | GCTAGTGAGG | 1.01
93 | AGTGGTGTT | 0.993
94 | CCTAATGCCT | 1.09
95 | GTGGAGTAGC | 1.08
96 | TGATGACGAA | 1.01
97 | CCAAGCGCA | 1.61
98 | TACAATGTTA | 1.03
99 | GTGGAGCGCC | 0.994
100 | ACTAACATCA | 1.13

Row | Sequence | switch fluorescence ratio
101 | TAATAGGTGC | 1.09
102 | AGACGAAGAT | 1.01
103 | GCAATTCCGC | 1.42
104 | TGCCGCTGCG | 1.08
105 | TTATGAGGCC | 0.973
106 | TCTCCAGTCA | 1.12
107 | TTAGCGATGC | 3.14
108 | TGCAATAGCC | 1.69
109 | AAAAAGCGAA | 0.998
110 | TTTGGCCGTC | 1.21
111 | GGGTAAGGAG | 1.04
112 | CGGAATCAAT | 1.05
113 | TATTAGAACG | 0.973
114 | GATGAGAGTA | 1.03
115 | CCTGGATAAG | 1.05
116 | GGACCATTTT | 0.984
117 | TGCGTGGTAT | 0.992
118 | ATGGGGTCTC | 1.03
119 | CATGACCCTT | 1.03
120 | AGTATATGA | 0.993
121 | CAGCGGCAGA | 1.02
122 | TGCCGTCTGG | 0.989
123 | AGCTGAGGAT | 0.947
124 | TAGTATGGGC | 1.01
125 | CGCTCCCAAC | 3.9

Row | Sequence | switch fluorescence ratio
126 | GCCGGAATAG | 2.91
127 | TTTAGCCTGA | 0.997
128 | ATGACTATAT | 1.04
129 | TTCGGCGACA | 1.01
130 | CAAACAAGTG | 0.988
131 | TTATCCCGTC | 1.08
132 | TAATCTGGCA | 0.977
133 | AGATATTAAA | 1
134 | TAGCTAGGGG | 0.973
135 | AATTTCCATC | 1
136 | GGGAACGCTT | 0.968
137 | AGTAATTTGG | 0.965
138 | GCGGGAGTGA | 1.02
139 | CTGCCACTTG | 1.04
140 | TATGAGCTAT | 0.992
141 | GCGTAGAGAA | 1.03
142 | GCCAACTTAC | 1.32
143 | ACTTCACCAA | 1.33
144 | GGGTCGGAAA | 0.969
145 | AAAAAGCCCG | 1.04
146 | AGCAATGACT | 4.62
147 | GCCGCAGATC | 4.67
148 | GGAAACTCGA | 1.03
149 | TCAATAGTT | 1
150 | CGCAAGCCCT | 2.32

Row | Sequence | switch fluorescence ratio
151 | TTCTCGCTTA | 0.972
152 | CAGTAATCCT | 1.07
153 | AAAATATTGG | 0.965
154 | TAGATAGGTT | 1.04
155 | AATCGTTTGG | 0.951
156 | ATGGAACTCC | 1.05
157 | CCCAGAAAC | 1.07
158 | AAGAGCAGGT | 1.03
159 | AGTTACACGG | 1.04
160 | ACATTGAAAT | 0.993
161 | TACCCATACT | 1.2
162 | GTTGGCGTCG | 0.907
163 | GTGGGGTATC | 0.956
164 | TGTTATCCTG | 0.986
165 | CACGCGTCCA | 0.999
166 | TTTACCCGCG | 0.959
167 | CATGTGTAGC | 0.99
168 | CATCGAACAC | 1.17
169 | ATGAAGAGGA | 1.01
170 | TGATGCCCTT | 1
171 | CCTTTATCTG | 1.06
172 | TTTTATGAA | 0.969
173 | CATCTTTGCT | 1.01
174 | GAGGGAACGG | 0.985
175 | GGATCGTTTT | 1

Row | Sequence | switch fluorescence ratio
176 | CCCCATGTTT | 1.9
177 | GCCCACGATT | 1.03
178 | AATCCTGAC | 2.44
179 | CCCTGGAGAA | 0.99
180 | TTTTTCGCAT | 2.18
181 | GTCCAGTCCG | 0.971
182 | CAGGGTAAGC | 1.03
183 | AAATAGTCAC | 1.07
184 | AGATTTTCGG | 0.978
185 | CATACTTGTT | 1
186 | GTTTACATTA | 0.979
187 | AGGCGGTCCG | 1.01
188 | ATGGCGTAAG | 0.989
189 | GTAGCGAGCA | 1.07
190 | AGGGCCACCA | 1.06
191 | TAGCACCTAT | 1.04
192 | TACATCAGTA | 1.02
193 | GTATCTATCG | 0.992
194 | AGAAGGTAAT | 0.987
195 | TAAATCCACG | 1.1
196 | AGGGTCCTGT | 0.993
197 | TAATGTCCGT | 1.08
198 | GGACGATATG | 0.97
199 | ATAGGTCCCT | 1.02
200 | CCCAGTACTT | 1.33
